In test [1] the test system is A549. The test is described as follows: mean average precision of replicate retrieval against DMSO controls (Cell Painting phenotypic activity) (fraction (0-1)); higher = stronger, more reproducible morphological phenotype distinct from DMSO; extreme values may be limits of the assay. Particulars: 5 µM.
Test [2] relates to U2OS. Described as above. The settings on record: 5 µM.

The text below walks through data of the supplement of paper PMC11166567.

Structures are written as SMILES. The list shows a part of the results.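 How the source made its calls: active = permutation test q below 0.05 after Benjamini-Hochberg correction; inactive = q of 0.05 or more.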
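Further: cosine similarity of well-level aggregated Cell Painting profiles ranks each compound's replicate wells against DMSO wells, four replicate plates, significance from 100,000 rank shuffles.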

With `Nc1ncnc2c1c(-c1cccc(OCc3ccccc3)c1)cn2C1CC(CN2CCCC2)C1` (stereo not given), the mean average precision in test [1] (24 h), in test [1] (48 h), in test [2] (24 h) and in test [2] (48 h) was active: 1 each time.

Consider `CN(C(=O)c1ccc(F)cc1C(F)(F)F)C1CCN(c2nnc(-c3ccnn3C)c3ccccc23)CC1`, for which the mean average precision was inactive: 0.265 in test [1] (24 h), active: 0.85 in test [1] (48 h), inactive: 0.197 in test [2] (24 h) and inactive: 0.115 in test [2] (48 h).

Turning to `CNC(=O)c1cc(Oc2ccc(NC(=O)Nc3ccc(Cl)c(C(F)(F)F)c3)c(F)c2)ccn1`, the mean average precision in test [1] (24 h) was active: 0.951; in test [1] (48 h), active: 1; in test [2] (24 h), active: 1; in test [2] (48 h), active: 1.

Turning to `O=C1CCc2ccc(OCCCCN3CCN(c4cccc(Cl)c4Cl)CC3)cc2N1`, the mean average precision in test [1] (24 h) was active: 0.951; in test [1] (48 h) it was active: 0.88; in test [2] (24 h), active: 0.67; in test [2] (48 h) it was active: 0.952.

As to `Cc1cc(-c2nc(-c3ccc(OC(F)(F)F)cc3)no2)nn1Cc1ccnc(N2CCN(C3CC3)CC2)c1`, the mean average precision was active: 0.757 in test [1] (24 h), active: 1 in test [1] (48 h), active: 0.636 in test [2] (24 h) and active: 0.777 in test [2] (48 h).

Regarding `N#Cc1ccc(-c2ccc(S(=O)(=O)Nc3cccc(N)n3)cc2)cc1`, the mean average precision is active: 0.477 in test [1] (24 h), active: 0.495 in test [1] (48 h), active: 0.652 in test [2] (24 h) and inactive: 0.246 in test [2] (48 h).

In the case of `O=C(Nc1cnn2ccc(N3CCC[C@@H]3c3cc(F)ccc3F)nc12)N1CC[C@H](O)C1`, the mean average precision in test [1] (24 h) is inactive: 0.288; in test [1] (48 h), active: 0.809; in test [2] (24 h), active: 0.65; in test [2] (48 h) it was active: 0.334.

`CC(C)C(=O)c1c(C(C)C)nn2ccccc12`: the mean average precision in test [1] (24 h) was active: 0.338; in test [1] (48 h) it was active: 0.758; in test [2] (24 h), active: 1; in test [2] (48 h), active: 0.485.

Regarding `CCC(CC)n1ccc2c(C(=O)NCc3c(C)cc(C)[nH]c3=O)cc(C#N)cc21`, the mean average precision is active: 0.56 in test [1] (24 h), active: 1 in test [1] (48 h), active: 0.917 in test [2] (24 h) and active: 0.317 in test [2] (48 h).

For the molecule `OC(CN1CCNCC1)Cn1c2ccc(Br)cc2c2cc(Br)ccc21` (stereo not given), the mean average precision in test [1] (24 h), in test [1] (48 h), in test [2] (24 h) and in test [2] (48 h) was active: 1 in each case.

Regarding `Cc1cc(Cl)ccc1OCCCC(=O)NO`, the mean average precision in test [1] (24 h) was active: 0.569; in test [1] (48 h), active: 1; in test [2] (24 h), active: 0.979; in test [2] (48 h) it was active: 0.392.

With `Oc1ccc(-c2nc(-c3ccc(F)cc3)c(-c3ccncc3)[nH]2)cc1`, the mean average precision is active: 0.911 in test [1] (24 h), active: 1 in test [1] (48 h), active: 0.861 in test [2] (24 h) and active: 0.889 in test [2] (48 h).

In the case of `CC1(C)CNc2cc(NC(=O)c3cccnc3NCc3ccncc3)ccc21`, the mean average precision in test [1] (24 h) was active: 0.663; in test [1] (48 h), active: 1; in test [2] (24 h), active: 1; in test [2] (48 h), active: 0.458.

With `COC(=O)C1=C(C)NC(C)=C(C(=O)OC(C)(C)CN(C)CCC(c2ccccc2)c2ccccc2)C1c1cccc([N+](=O)[O-])c1` (stereo not given), the mean average precision is active: 0.537 in test [1] (24 h), active: 0.938 in test [1] (48 h), active: 0.8 in test [2] (24 h) and active: 0.755 in test [2] (48 h).

For the molecule `O=C(O)CN1C(=O)c2cccc3cccc(c23)C1=O`, the mean average precision in test [1] (24 h) was active: 0.335; in test [1] (48 h), active: 0.588; in test [2] (24 h) it was active: 0.463; in test [2] (48 h), inactive: 0.283.

Turning to `CC(C)COCC(CN(Cc1ccccc1)c1ccccc1)N1CCCC1` (stereo not given), the mean average precision in test [1] (24 h) was active: 0.885; in test [1] (48 h) it was active: 1; in test [2] (24 h), active: 0.86; in test [2] (48 h) it was inactive: 0.295.

Consider `COc1ccc(Cl)cc1C(=O)NCCc1ccc(S(=O)(=O)NC(=O)NC2CCCCC2)cc1`, for which the mean average precision in test [1] (24 h) was active: 0.353; in test [1] (48 h) it was active: 0.767; in test [2] (24 h), active: 0.378; in test [2] (48 h), inactive: 0.257.

For the molecule `C=C[C@H]1CN2CC[C@H]1C[C@@H]2[C@H](O)c1ccnc2ccc(OC)cc12`, the mean average precision is active: 0.324 in test [1] (24 h), active: 0.787 in test [1] (48 h), active: 0.456 in test [2] (24 h) and active: 0.414 in test [2] (48 h).

As to `C/C=C(/C)C(=O)O[C@H]1C(C)=C[C@]23C(=O)[C@@H](C=C(CO)[C@@H](O)[C@]12O)[C@H]1[C@@H](C[C@H]3C)C1(C)C`, the mean average precision in test [1] (24 h), in test [1] (48 h), in test [2] (24 h) and in test [2] (48 h) was active: 1 throughout.

In the case of `O=C(/C=C/c1cccnc1)NCCCCC1CCN(C(=O)c2ccccc2)CC1`, the mean average precision in test [1] (24 h) is active: 0.976; in test [1] (48 h), active: 1; in test [2] (24 h), active: 0.971; in test [2] (48 h) it was active: 1.

Turning to `Cc1cc(Nc2ncc(Cl)c(Nc3ccccc3S(=O)(=O)C(C)C)n2)c(OC(C)C)cc1C1CCNCC1`, the mean average precision in test [1] (24 h) is active: 1; in test [1] (48 h) it was active: 1; in test [2] (24 h), active: 1; in test [2] (48 h), active: 0.946.

With `CCCCNc1ncc2c(-c3ccc(CN4CCN(C)CC4)cc3)cn(C3CCC(O)CC3)c2n1` (stereo not given), the mean average precision in test [1] (24 h), in test [1] (48 h), in test [2] (24 h) and in test [2] (48 h) was active: 1 each time.

Turning to `CC[C@@H]1C(=O)N(C)c2cnc(Nc3ccc(C(=O)NC4CCN(C)CC4)cc3OC)nc2N1C1CCCC1`, the mean average precision in test [1] (24 h), in test [1] (48 h), in test [2] (24 h) and in test [2] (48 h) was active: 1 throughout.

As to `Cc1cc2c(s1)Nc1ccccc1N=C2N1CCN(C)CC1`, the mean average precision in test [1] (24 h) was active: 0.767; in test [1] (48 h), active: 0.808; in test [2] (24 h) it was active: 0.418; in test [2] (48 h), active: 0.628.

As for `CCC(C)(C)C(=O)O[C@H]1C[C@@H](C)C=C2C=C[C@H](C)[C@H](CC[C@@H]3C[C@@H](O)CC(=O)O3)[C@H]21`, the mean average precision in test [1] (24 h) is inactive: 0.271; in test [1] (48 h) it was active: 0.861; in test [2] (24 h) it was active: 1; in test [2] (48 h), active: 1.
